Measured values as given in PMC4336329 (PLoS ONE, 2015).
Screen size: about 310,000 compounds; about 2,200 (0.71%) showed an effect of 50% or more. The effect is printed as a negative number. Some of the results follow.

molecular target: human ether-à-go-go-related gene (hERG) potassium channel (human, UniProt Q12809); experiment: primary screen, population patch clamp on CHO cells stably expressing hERG
Sequence (Q12809 whole entry, looked up): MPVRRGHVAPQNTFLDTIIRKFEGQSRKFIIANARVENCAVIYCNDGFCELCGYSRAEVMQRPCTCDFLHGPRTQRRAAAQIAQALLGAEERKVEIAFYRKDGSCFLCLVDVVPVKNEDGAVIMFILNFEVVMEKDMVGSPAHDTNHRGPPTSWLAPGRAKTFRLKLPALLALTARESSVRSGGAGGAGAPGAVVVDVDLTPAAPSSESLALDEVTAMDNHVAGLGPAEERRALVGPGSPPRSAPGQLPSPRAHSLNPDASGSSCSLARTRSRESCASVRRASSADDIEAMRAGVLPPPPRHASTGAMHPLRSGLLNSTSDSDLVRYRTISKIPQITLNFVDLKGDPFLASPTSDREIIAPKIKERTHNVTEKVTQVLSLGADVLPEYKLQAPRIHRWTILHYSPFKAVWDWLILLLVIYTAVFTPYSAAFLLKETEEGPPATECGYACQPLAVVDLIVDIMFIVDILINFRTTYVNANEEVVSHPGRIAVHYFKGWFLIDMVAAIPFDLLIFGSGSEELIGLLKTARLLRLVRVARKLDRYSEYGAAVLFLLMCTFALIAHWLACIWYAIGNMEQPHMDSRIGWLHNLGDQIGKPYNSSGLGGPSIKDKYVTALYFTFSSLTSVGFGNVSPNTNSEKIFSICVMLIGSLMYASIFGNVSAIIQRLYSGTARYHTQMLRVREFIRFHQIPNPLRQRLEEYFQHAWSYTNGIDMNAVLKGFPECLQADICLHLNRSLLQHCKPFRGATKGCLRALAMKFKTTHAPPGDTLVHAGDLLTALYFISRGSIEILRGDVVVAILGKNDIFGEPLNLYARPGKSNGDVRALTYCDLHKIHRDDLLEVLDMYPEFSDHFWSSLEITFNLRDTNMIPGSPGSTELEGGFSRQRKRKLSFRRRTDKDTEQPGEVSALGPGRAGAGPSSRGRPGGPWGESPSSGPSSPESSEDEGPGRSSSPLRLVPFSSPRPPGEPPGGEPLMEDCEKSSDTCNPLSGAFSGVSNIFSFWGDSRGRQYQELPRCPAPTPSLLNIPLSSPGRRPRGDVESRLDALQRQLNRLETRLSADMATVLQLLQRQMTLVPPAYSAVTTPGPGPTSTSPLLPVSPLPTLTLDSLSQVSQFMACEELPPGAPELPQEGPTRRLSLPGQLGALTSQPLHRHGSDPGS

Point of comparison: CC(Sc1nnc(-c2ccc(Cl)cc2)n1C)C(N)=O (stereo not drawn), “hERG current change (%, negative = inhibition) at 1uM” value 2.15%. Against it:
- N=c1oc2ccccc2cc1C(=O)Nc1ccc(F)cc1 — higher, 14%
- Cc1ccc(CN2C(=O)CCC2C(=O)NCCc2ccccc2)cc1 (stereo not drawn) — higher, 14.2%
- COC(=O)C1=C(c2cc3ccccc3s2)C[C@@H]2CC[C@H]1N2C — higher, 9.17%
- Cc1cc(OCC(=O)Nc2sc3c(c2C#N)CC(C)(C)NC3(C)C)c(C(C)C)cc1Cl — higher, 11.3%
- Cc1ccccc1-c1noc(-c2ccccc2C(=O)N2CCCC2)n1 — higher, 4%
- COc1cc(/C=C/C(=O)O)cc(S(=O)(=O)NC2CCCC2)c1OC — higher, 11.3%
- Nc1ccc(Cl)c(S(=O)(=O)Nc2ccc(Cl)cc2)c1 — higher, 14.1%
- Cn1c(=O)[nH]c(=O)c2c1nc(Br)n2CCCSc1nc2ccccc2o1 — lower, -22.4%
- COc1cc(C(=O)N2CCN(C(=O)c3cccc4ccccc34)CC2)cc(OC)c1OC — higher, 12.4%
- CC1=CCC2C(=O)N(c3ccc4ccccc4n3)C(=O)C2C1 (stereo not drawn) — lower, -4.17%
- CC(=O)N(C)/C=C1\Sc2ccccc2C1=O — higher, 10.2%
- CSCSC1=C(C#N)C(c2ccccc2Cl)C(C(C)=O)=C(C)N1 (stereo not drawn) — higher, 8.45%
- Cc1nc(-c2cc(-c3nc(-c4cc(C(F)(F)F)cc(C(F)(F)F)c4)no3)no2)cs1 — higher, 14.5%
- CC(=O)c1ccccc1Oc1nc(CN2CCOCC2)nc2scc(-c3cccs3)c12 — higher, 11.6%
- O=C(N/N=C/c1cccc([N+](=O)[O-])c1)c1ccncc1 — higher, 10.8%
- CCn1c(C)c(CS(=O)(=O)c2ccccc2)[nH]c1=O — higher, 28.9%
- Cc1cc([N+](=O)[O-])nn1Cc1ccc(C(=O)N/N=C/c2ccccc2)cc1 — higher, 6.72%
- CCN(CC)CCCNc1oc(-c2ccccc2[N+](=O)[O-])nc1C#N — higher, 5.21%
- CN(C)CCCn1c(=O)n(Cc2ccccc2)c(=O)c2c3c(sc21)CCCCC3 — higher, 4.25%
- CCCOc1ccc(C2C3=C(CCCC3=O)N(CC(=O)O)C3=C2C(=O)CCC3)cc1OCC — higher, 16.3%
- CCCC(=O)N=C1SC2CS(=O)(=O)CC2N1c1ccc(CC)cc1 (stereo not drawn) — higher, 11.8%
- COCCN(Cc1cc2cc3c(cc2nc1Cl)OCO3)C(=O)Nc1ccccc1OC — higher, 12.3%
- O=[N+]([O-])c1cccc(S(=O)(=O)N2CCCC2)c1 — lower, -3.67%
- CCN1CCN(c2cc(C)c3cc(NC(=O)CCC(=O)Nc4ccc(OC)cc4OC)ccc3n2)CC1 — higher, 13.4%
- COc1ccc(CNS(=O)(=O)c2cc(-c3cc(C)no3)ccc2OC)cc1OC — higher, 9.88%
- COc1cccc(C(=O)N2c3ccccc3Sc3ccccc32)c1 — lower, 1.25%
- CCCSc1nc(C)c2cc(C)cc(C)c2n1 — higher, 9.27%
- O=C(COC(=O)C1(c2ccccc2F)CCCC1)N1CCN(C(=O)c2ccco2)CC1 — higher, 11.6%
- CCN=c1scc(-c2ccco2)n1/N=C/c1ccc(OC)c(O)c1 — lower, -6.07%
- COc1ccc(C(=O)Nc2ccc(NC(=O)c3cccs3)cc2)cc1[N+](=O)[O-] — higher, 10.7%
- COc1cc(C2=Nc3c(c(C)nn3-c3ccccc3)P(=O)(N3CCOCC3)O2)cc(OC)c1OC (stereo not drawn) — higher, 16.4%
- Cc1cccn2cc(CNC(=O)c3ccc(Br)o3)nc12 — higher, 5.26%
- COc1ccc(CN(C)Cc2cc(=O)n3ccsc3n2)c(OC)c1OC — higher, 3.18%
- Cc1c(NC(=O)CN2C(=O)C3C4C=CC(C4)C3C2=O)c(=O)n(-c2ccccc2)n1C (stereo not drawn) — higher, 5.38%
- O=C1OCC(c2ccc(Cl)s2)=C1c1ccccc1[N+](=O)[O-] — higher, 16.2%
- COc1ccc(C(c2nnnn2Cc2ccc(F)cc2)N2CCN(c3ccccc3)CC2)cc1 (stereo not drawn) — higher, 3.44%
- COc1ccc2c(c1)C(c1cccs1)=NNC(c1ccncc1)=N2 — lower, 1.92%
- C=CCN1C2CCCC1CC(NC(=O)Nc1cccc(C(C)=O)c1)C2 (stereo not drawn) — higher, 11.3%
- CCCCc1cc(=O)oc2cc(C)cc(OCC(=O)N3CCC(C(N)=O)CC3)c12 — higher, 4.77%
- C#CCOCCOCCOCCNc1nc(N2CCOCC2)nc(N2CCN(C(=O)[C@H]([C@@H](C)O)n3cc(CCCC[NH3+])nn3)CC2)n1.[Cl-] — higher, 16.1%
- O=C1OCCC1Sc1ncnc2sc3c(c12)CCC3 (stereo not drawn) — higher, 5.58%
- CCCNc1nc(C)nc2c1cnn2CCc1ccccc1 — higher, 16.1%
- Cc1ccc(COn2c(-c3ccc(Cl)cc3Cl)nc3ncccc32)cc1 — lower, -12.8%
- Cc1nn(Cc2ccccc2Cl)c(C)c1C(=O)N1CCN(c2ccccc2)CC1 — lower, -32.3%
- COc1cc(/C=N/NC(=O)c2cccc(S(=O)(=O)N3CCOCC3)c2)cc(OC)c1O — lower, 0.944%
- O=C(Nc1ccc(NC(=O)c2ccc3c(c2)OCO3)cc1)c1cccc(Cl)c1 — higher, 17.4%
- CCOC(=O)C(C)n1cnc2sc(C)c(C)c2c1=O (stereo not drawn) — higher, 14.1%
- Cc1cc(OCC(=O)NC2CC(C)(C)NC(C)(C)C2)c2c(C)c(C)c(=O)oc2c1 — higher, 13.8%
- Cc1ccc2[nH]c(=O)c(NC(N)=S)nc2c1 — lower, -4.32%
- COc1ccc(OCC(=O)Nc2ccc(S(=O)(=O)Nc3cc(C)nc(C)n3)cc2)cc1 — higher, 16.5%
- CN(C)c1ccc(N/C=C/C(=O)C(F)(F)F)cc1 — higher, 17.7%
- CCOc1ccc(NC(=O)c2cccc3ccccc23)cc1 — higher, 9.75%
- CCC(C)(C)NC(=O)C(c1ccc(F)cc1)N(Cc1ccccc1)C(=O)c1cnccn1 (stereo not drawn) — lower, -5.26%
- Cc1ccc(C(=O)Nc2ccc(N3CCN(C)CC3)cc2)c(Cl)c1 — higher, 10.6%
- COc1ccccc1CNS(=O)(=O)c1ccc2c(c1)oc(=O)n2C — lower, -8.05%
- O=[N+]([O-])c1ccc(NCCCN2CCOCC2)c2ncccc12 — higher, 21.3%
- CC1(C)Cc2nc3sc4c(N(CCO)CCO)ncnc4c3cc2CO1 — higher, 10.4%
- CCC(=O)c1ccc(NC(C)=O)cc1O — higher, 10.6%
- CCOc1ccc(C(C)=O)cc1CN1C(=O)NC(C)(C2CC2)C1=O (stereo not drawn) — higher, 8.71%
- CCOC(=O)c1c(NC(=O)CSc2nc3ccccc3[nH]2)sc2c1CC(C)(C)NC2(C)C — lower, -0.588%
- CCC(=O)N1CCN(c2nc(-c3ccccc3)c3c(c2C#N)CCCC3)CC1 — higher, 13.8%
- Cc1cc(C(F)F)nn1CC(=O)NC1C(=O)N2C(C(=O)O)=C(CSc3nnnn3C)CSC12 (stereo not drawn) — lower, -6.06%
- CC1(c2cccc([N+](=O)[O-])c2)CC(C)(C)N(C(=O)c2ccccc2)c2ccccc21 (stereo not drawn) — higher, 8.47%
- CCn1cc(C(=O)NCCc2ccccc2C)c(=O)c2ccc(C)nc21 — higher, 15.5%
- O=C(O)C1C2CC3C(OC(=O)C31)C2Cl (stereo not drawn) — higher, 10.1%
- COc1ccc(C(=O)N2CCCC2(C#N)c2ccccc2)cc1[N+](=O)[O-] (stereo not drawn) — lower, 1.31%
- COCc1ccc(CN2CCCC(CCC(=O)NCc3ccc(C)o3)C2)o1 (stereo not drawn) — lower, -9.05%
- CN(c1ccccc1)S(=O)(=O)c1cccc(C(=O)N2CCN(c3ccccn3)CC2)c1 — lower, 0.548%
- CCc1ccccc1NC(=O)c1ccc(-c2csc(C)n2)cc1 — higher, 7.98%
- Cc1noc(C)c1C(=O)Nc1nc(C23CC4CC(CC(C4)C2)C3)cs1 — higher, 7.46%
- CC1=NCCN1S(=O)(=O)c1c(C(C)C)cc(C(C)C)cc1C(C)C — higher, 14.6%
- CN(C)c1ccc(/C=C2/C=C(c3ccc4c(c3)CCCC4)OC2=O)cc1 — higher, 11.3%
- Cc1ccc(NC(=O)CSc2nnc(Cn3cnc4ccccc43)o2)cc1 — higher, 5.35%
- COc1ccccc1C(=O)N/C(=C\c1ccc(Br)cc1)C(=O)NCC(=O)O — lower, 0.366%
- COc1ccc(N2CCN(CC(O)COc3ccccc3[N+](=O)[O-])CC2)cc1.Cl (stereo not drawn) — lower, -13.9%
- COc1cccc(C(=O)NCCSCc2c(F)cccc2Cl)c1 — higher, 9.61%
- COc1ccc(CCNC(=O)N2c3ccccc3Sc3ccccc32)cc1 — higher, 10.9%
- Cc1cccc(C(=O)Oc2ccc(/C=N/NC(=O)Cc3ccc([N+](=O)[O-])cc3)cc2)c1 — higher, 9.89%
- O=C(Cc1ccccc1)NNC(=O)c1cccs1 — higher, 6.89%
- Cc1ccc2c(c1)c1c3n2CCNC3CCC1.Cl (stereo not drawn) — higher, 18.8%
- CCOc1ccc(CNC(=O)C2CCC(=O)N2C2CCCC2)cc1OC (stereo not drawn) — higher, 5.53%
- CSc1[nH]c(=O)c(C(=O)O)cc1C#N — higher, 13%
- Nc1cccc([N+](=O)[O-])c1 — higher, 5.03%
- O=C(Nc1ccc(Cl)cc1)Nc1ccon1 — higher, 12.9%
- CN(C(=O)c1ccccc1C(=O)OCC(=O)Nc1ccccc1)c1ccccc1 — higher, 11%
- CC(=O)C1=C(O)C(=O)N(Cc2ccco2)C1c1ccccc1 (stereo not drawn) — higher, 13.3%
